Measurements published in the supplement of paper PMC4604168 (melanoma cell lines).
This is one part of the list. Repeats are few or missing, and single values can be far off.

Tested on: SkMel5
Assay: cell count relative to DMSO control; melanoma cells; higher = more viable cells
Details: library dose: standard library concentration; 72 h
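Note: cells treated in 1,536-well plates, then fixed and DAPI-stained, with nuclei counted from automated high-throughput microscope images.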

SMILES	cell count [%]
CN(c1ncccc1CNc1nc(Nc2ccc3c(c2)CC(=O)N3)ncc1C(F)(F)F)S(C)(=O)=O + Cc1ccc(NC(=O)c2cccc(N(C)C)c2)cc1NC(=O)c1ccc(O)cc1 [ZM336372] (first compound 0.4 µM, partner dose 10 µM)	64.2
C=C(c1ccc(C(=O)O)cc1)c1cc2c(cc1C)C(C)(C)CCC2(C)C [Bexarotene] + Nc1ccn([C@@H]2O[C@H](CO)[C@@H](O)C2(F)F)c(=O)n1 [gemcitabine] (first compound 10 µM, partner dose 0.002 µM)	80.7
CS(=O)(=O)c1ccc(C(=O)Nc2ccc(Cl)c(-c3ccccn3)c2)c(Cl)c1 [vismodegib] + CS(=O)(=O)CCNCc1ccc(-c2ccc3ncnc(Nc4ccc(OCc5cccc(F)c5)c(Cl)c4)c3c2)o1 [lapatinib] (first compound 5 µM, partner dose 4 µM)	51.5
NC1(c2ccc(-c3nc4ccn5c(=O)[nH]nc5c4cc3-c3ccccc3)cc2)CCC1 + Cc1cc(N2CCOCC2)cc2[nH]c(-c3c(NC[C@@H](O)c4cccc(Cl)c4)cc[nH]c3=O)nc12 [BMS536924] (first compound 2 µM, partner dose 1 µM)	61.1
C=C(c1ccc(C(=O)O)cc1)c1cc2c(cc1C)C(C)(C)CCC2(C)C [Bexarotene] + Nc1ncn([C@H]2C[C@H](O)[C@@H](CO)O2)c(=O)n1 [decitabine] (first compound 10 µM, partner dose 0.5 µM)	79.1
